Test results reported in PubChem BioAssay (NCATS).
Several values for one entry are separate records, joined by “and”; a condition that tells them apart may be missing. Equal entries are not always repeated. Inconclusive results, whose numbers are uncertain, are shown with a selection of clear calls. For some of these results: Potencies of inconclusive entries are doubtful fits and often do not repeat. Activity calls are given as the source filed them. Calls come from the whole dose curve; as a rule, active = well fitted curve in the direction sought with a large enough effect; inconclusive = small, poorly fitted or top-dose-only effect, or another doubt; inactive = no such curve, though single readings can be large; an effect the other way counts as inactive or inconclusive.

Columns and labels:
[1] = test system: HEK293; assay: Cytotoxic Profiling of Annotated Libraries Using Quantitative High-Throughput Screening (AID 1296008); settings: Five cell lines viability, CellTiter-Glo ATP luminescence, 48-72 h; max response: stronger effect = lower value; note: nearly all actives have a fitted effect of over 60% in size; for max response: % is set by controls: 0 for no effect and ±100 for the full control effect
In short: (§1)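 Cytotoxicity was measured as CellTiter-Glo ATP luminescence, read after 10 min at room temperature. Compound treatment of the cells lasted 48 or 72 hr at 37 degrees Celsius in a qHTS format.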

[2] = test system: HaCat; assay: as above; settings: Five cell lines viability, CellTiter-Glo ATP luminescence, 48-72 h; max response: stronger effect = lower value
In short: as §1

[3] = test system: C33A; assay: Primary qHTS to identify gynecologic anti-cancer compounds using libraries of approved drugs and bioactive compounds (AID 1345084); settings: Gynecologic cancer cell panel viability, ATPlite luminescence, 48 h; series mostly up to 57.5 µM; note: nearly all actives have a fitted effect of over 55% in size; for activity change, negative = cytotoxicity: % is set by controls: 0 for no effect and ±100 for the full control effect
In short: (§2)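 Cells, 1,000 per well, plated 16 h, then exposed 48 h at 37 C to compounds. Viability by ATPlite luminescence after 15 min at room temperature.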

[4] = test system: Zika virus NS2B-NS3 protease (unlinked complex); assay: Primary screen GU Rhodamine qHTS for Zika virus inhibitors: Unlinked NS2B-NS3 protease assay (AID 1347159); note: nearly all actives have a fitted effect of over 60% in size
In short: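 Compounds, tested up to 114 microM, were incubated for 15 minutes with 25 nM unlinked NS2B-NS3 protease at pH 8.0. Cleavage of 1.5 microM Rhodamine110 substrate was then followed by fluorescence for 15 minutes.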

[5] = test system: CAOV3; assay: Primary qHTS to identify gynecologic anti-cancer compounds using libraries of approved drugs and bioactive compounds (AID 1345084); settings: Gynecologic cancer cell panel viability, ATPlite luminescence, 48 h; series mostly up to 57.5 µM; note: nearly all actives have a fitted effect of over 55% in size; for activity change, negative = cytotoxicity: % is set by controls: 0 for no effect and ±100 for the full control effect
In short: as §2

[6] = test system: CASKI; assay: as above; settings: Gynecologic cancer cell panel viability, ATPlite luminescence, 48 h; activity change, negative = cytotoxicity: at 57.5 µM (top of the series)
In short: as §2

[7] = test system: Es-2; assay: as above; settings: Gynecologic cancer cell panel viability, ATPlite luminescence, 48 h; series mostly up to 57.5 µM
In short: as §2

[8] = test system: HeLa; assay: as above; settings: Gynecologic cancer cell panel viability, ATPlite luminescence, 48 h; series mostly up to 57.5 µM
In short: as §2

[9] = test system: Hek293T; assay: as above; settings: Gynecologic cancer cell panel viability, ATPlite luminescence, 48 h, control line for the selectivity index; series mostly up to 57.5 µM
In short: as §2

[10] = test system: JEG-3; assay: as above; settings: Gynecologic cancer cell panel viability, ATPlite luminescence, 48 h; series mostly up to 57.5 µM
In short: as §2

[11] = test system: OV90; assay: as above; settings: Gynecologic cancer cell panel viability, ATPlite luminescence, 48 h; series mostly up to 57.5 µM
In short: as §2

[12] = test system: PA-1; assay: as above; settings: Gynecologic cancer cell panel viability, ATPlite luminescence, 48 h; series mostly up to 57.5 µM
In short: as §2

[13] = test system: SKOV3; assay: as above; settings: Gynecologic cancer cell panel viability, ATPlite luminescence, 48 h; series mostly up to 57.5 µM
In short: as §2

[14] = test system: Tov-21-G; assay: as above; settings: Gynecologic cancer cell panel viability, ATPlite luminescence, 48 h; activity change, negative = cytotoxicity: at 57.5 µM (top of the series)
In short: as §2

[15] = test system: Tov112D; assay: as above; settings: Gynecologic cancer cell panel viability, ATPlite luminescence, 48 h; activity change, negative = cytotoxicity: at 57.5 µM (top of the series)
In short: as §2

[16] = P-glycoprotein substrates identified in KB-8-5-11 adenocarcinoma cell line, qHTS therapeutic library screen (AID 1346987); note: nearly all actives have a fitted effect of over 65% in size
In short: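 KB-8-5-11, a colchicine-selected P-gp-overexpressing KB-3-1 subline, was grown without colchicine for the assay. Cells were seeded at 500 cells/well, dosed in concentration-response and incubated 72 h at 37 degree C, 5% CO2. Viability was read by CellTiter-Glo luminescence.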

[17] = Primary qHTS for inhibitors of nuclear receptor binding SET domain protein 2 (NSD2) in an RCH-ACV wild type WT cells (2C) (AID 1645877); settings: activity change, negative = cell killing: at 44.9 µM (top of the series); note: nearly all actives have a fitted effect of over 70% in size
[18] = Primary qHTS for inhibitors of nuclear receptor binding SET domain protein 2 (NSD2) in an isogenic RCH-ACV NSD2 p.E1099K mutant (9B) (AID 1645876); note: nearly all actives have a fitted effect of over 70% in size
[19] = test system: NIH3T3; assay: Cytotoxic Profiling of Annotated Libraries Using Quantitative High-Throughput Screening (AID 1296008); settings: Five cell lines viability, CellTiter-Glo ATP luminescence, 48-72 h; max response: stronger effect = lower value; note: nearly all actives have a fitted effect of over 60% in size; for max response: % is set by controls: 0 for no effect and ±100 for the full control effect
In short: as §1
Potency is the fitted concentration of half-maximal effect; tags give direction and shape of the fitted curve.

C[C@H](CN1CCCC1)C(=O)c1ccc(C(F)(F)F)cc1
inconclusive: Potency [2] 0.13 µM [inhibitor, full curve] | Potency [3] 39.8 µM [rising, single point]
inactive: max response [1] -20.1%

CC(O)(C(=O)O)C1CCC2(C)C1CCC1(C)C2CCC2C3(C)CCC(O)C(C)(COC4OC(CO)C(O)C(O)C4O)C3CCC21C (configuration not stated)
active: Potency [4] 7.94 µM | Potency [9] 10 µM | Potency [15] 8.91 µM
inconclusive: Potency [1] 9.68 µM [inhibitor, single point] | Potency [2] 5.44 µM [inhibitor, single point] | Potency [3] 12.6 µM [cytotoxic, single point] | Potency [5] 7.08 µM [cytotoxic, partial curve, poor fit] | Potency [6] 10 µM [cytotoxic, partial curve] | Potency [7] 12.6 µM [cytotoxic, single point] | Potency [8] 11.2 µM [cytotoxic, single point] | Potency [10] 12.6 µM [cytotoxic, single point] | Potency [11] 12.6 µM [cytotoxic, single point] | Potency [12] 12.6 µM [cytotoxic, single point] | Potency [13] 7.08 µM [cytotoxic, partial curve, poor fit] | Potency [14] 12.6 µM [cytotoxic, single point]

C=C1CN(Cc2ccc(C(=O)Nc3ccccc3N)cc2)C(=O)c2ccccc21
inconclusive: Potency [5] 3.98 µM [cytotoxic, partial curve, poor fit] | Potency [14] 11.2 µM [cytotoxic, partial curve, poor fit]
active: Potency [16] 1.3 µM | Potency [1] 1.46 µM | Potency [2] 5.8 µM | Potency [3] 2.82 µM | Potency [6] 4.47 µM | Potency [9] 2.24 µM | Potency [10] 5.62 µM | Potency [11] 6.31 µM | Potency [13] 1.41 µM

CCCSS/C(CCO)=C(\C)N(C=O)Cc1cnc(C)nc1N
inconclusive: Potency [1] 33.5 µM [inhibitor, single point] | Potency [2] 21.1 µM [inhibitor, single point] | Potency [7] 39.8 µM [cytotoxic, single point]
inactive: Potency [11]

CCOc1cc2ncc(C#N)c(Nc3ccc(F)c(Cl)c3)c2cc1NC(=O)/C=C/CN(C)C
active: Potency [16] 3.26 µM | Potency [17] 1.03 µM and 590 nM | Potency [1] 1.64 µM | Potency [2] 0.0259 µM | Potency [9] 25.1 µM | Potency [13] 0.398 µM | Potency [14] 1 µM
inconclusive: Potency [3] 15.8 µM [cytotoxic, partial curve, poor fit] | Potency [5] 5.01 µM [cytotoxic, partial curve] | Potency [6] 0.1 µM [cytotoxic, full curve, poor fit] | Potency [7] 11.2 µM [cytotoxic, partial curve, poor fit] | Potency [8] 3.55 µM [cytotoxic, single point] | Potency [10] 22.4 µM [rising, single point] | Potency [12] 11.2 µM [cytotoxic, partial curve] | Potency [15] 39.8 µM [cytotoxic, single point]

CN(C)CCOC1=Cc2ccccc2Sc2ccc(Cl)cc21
inconclusive: Potency [16] 4.11 µM [inhibitor, full curve] | Potency [18] 26.6 µM [inhibitor, single point] | Potency [1] 33.5 µM [inhibitor, single point] | Potency [11] 10 µM [cytotoxic, partial curve]
active: Potency [17] 16.8 µM
inactive: outcome [2] | Potency [5] | Potency [13]

NC1CCN(c2nc3c(cc2F)c(=O)c(C(=O)O)cn3-c2ccc(F)cc2F)C1 (configuration not stated)
inconclusive: Potency [18] 29.9 µM [inhibitor, single point] | Potency [17] 21.1 µM [inhibitor, single point] | Potency [1] 29.9 µM [inhibitor, single point]
inactive: Potency [16] | outcome [2] | Potency [9]

C/C(=C\CO[C@@H]1O[C@H](CO[C@H]2OC[C@](O)(CO)[C@H]2O)[C@@H](O)[C@H](O)[C@H]1O)C(C)(C)O
inactive: max response [2] -2.99% | max response [19] 3.25% | Potency [14]
inconclusive: Potency [1] 14.2 µM [inhibitor, single point]

COc1cc2c(NC3CCN(CC4CCCCC4)CC3)nc(N3CCCN(C(C)C)CC3)nc2cc1OCCCN1CCCCC1
active: Potency [1] 3.26 µM | Potency [3] 14.1 µM | Potency [5] 3.98 µM | Potency [7] 3.98 µM | Potency [9] 20 µM | Potency [10] 5.62 µM | Potency [11] 3.16 µM | Potency [12] 5.62 µM | Potency [13] 3.98 µM | Potency [14] 20 µM | Potency [15] 7.94 µM
inconclusive: Potency [16] 25.9 µM [inhibitor, single point] | Potency [2] 5.17 µM [inhibitor, full curve, poor fit] | Potency [6] 3.98 µM [cytotoxic, full curve, poor fit] | Potency [8] 39.8 µM [cytotoxic, single point]

C=C1C(=O)O[C@H]2[C@@H]1CCC(C)=CCC[C@@]1(C)O[C@@H]21
active: Potency [16] 23.5 µM | Potency [1] 4.18 µM | Potency [2] 20.9 µM

CC(C)NC(=O)N1CC[C@H](N=C2Nc3cc(F)ccc3N(CC(F)F)c3ccc(Cl)cc32)C1
inactive: activity change, negative = cell killing [17] 1.84% [at 9.23 µM] | activity change, negative = cytotoxicity [13] 18.3% [at 11.6 µM]
inconclusive: Potency [1] 4.37 µM [inhibitor, partial curve, poor fit] | Potency [2] 4.91 µM [inhibitor, single point] | Potency [19] 5.51 µM [inhibitor, single point]

CCNC(=O)Nc1ccc(-c2nc3c(c(N4CCOC[C@@H]4C)n2)CCN(c2ncccn2)C3)cc1
active: Potency [16] 0.259 µM | Potency [18] 0.0728 µM | Potency [17] 0.103 µM | Potency [1] 0.184 µM | Potency [9] 1 µM | Potency [11] 1.26 µM
inconclusive: Potency [2] 7.31 µM [inhibitor, partial curve] | Potency [3] 1.58 µM [cytotoxic, full curve] | Potency [5] 0.631 µM [cytotoxic, full curve, poor fit] | Potency [6] 3.98 µM [cytotoxic, partial curve, poor fit] | Potency [7] 1 µM [cytotoxic, full curve, poor fit] | Potency [8] 14.1 µM [cytotoxic, partial curve, poor fit] | Potency [13] 0.891 µM [cytotoxic, full curve] | Potency [14] 0.251 µM [cytotoxic, full curve] | Potency [15] 0.224 µM [cytotoxic, full curve]

O=C(COc1ccc(Cl)cc1)N1CCN(Cc2ccc3c(c2)OCO3)CC1
inconclusive: Potency [16] 18.4 µM [inhibitor, partial curve] | Potency [18] 16.8 µM [inhibitor, single point] | Potency [17] 26.6 µM [inhibitor, single point] | Potency [1] 16.8 µM [inhibitor, partial curve] | Potency [2] 0.106 µM [inhibitor, full curve, poor fit]
inactive: Potency [8]

COC[C@H](NC(=O)c1cnc(C)s1)C(=O)N[C@@H](COC)C(=O)N[C@@H](Cc1ccccc1)C(=O)[C@@]1(C)CO1
active: Potency [1] 0.148 µM | Potency [2] 0.662 µM

COc1ccc2c(c1)c(CC(=O)OC/C=C(\C)CC/C=C(\C)CCC=C(C)C)c(C)n2C(=O)c1ccc(Cl)cc1
inactive: max response [1] -3.27% | outcome [2]
inconclusive: Potency [18] 33.5 µM [inhibitor, single point] | Potency [17] 18.8 µM [inhibitor, partial curve]

Cc1cc(=O)[nH]c(=S)[nH]1
inactive: max response [1] -1.11% | max response [2] -13.5% | Potency [5]
inconclusive: Potency [18] 29.9 µM [inhibitor, single point] | Potency [17] 26.6 µM [inhibitor, single point] | Potency [13] 5.62 µM [rising, full curve, poor fit]

CN(C)CCN1C(=O)c2ccccc2N(C)c2ccccc21
inconclusive: Potency [17] 33.5 µM [inhibitor, single point] | Potency [2] 33.5 µM [inhibitor, single point] | Potency [5] 39.8 µM [rising, partial curve, poor fit]
inactive: max response [1] -1.88% | Potency [11]
